Test results published in the supplement of paper PMC10126150.
Sequences with one replicate were seen in a single cluster, so their values are uncertain.

Test system: ATP
Assay: switch fluorescence ratio, 500 uM ATP over buffer (Cy3 cluster intensity, sum of 5 cycles each) (fold (ratio)); higher = stronger signal-on switching upon ATP binding; sequences stand for … in TCGTCGGCAGCGTCAGATGTGTATAAGAGACAGTTTTTTTTTTTTTTTTTTTTTTTTT…TC
Conditions: aptamer strand: ATP DNA aptamer (quencher-CACCTGGGGGAGTATTGCGGAGGAAGG + anchor), 100 nM annealed; ATP concentration: 500 uM; one replicate
Method in brief: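 Five buffer/ATP imaging cycles were run on Cy3-labelled switching-strand clusters on a modified Illumina MiSeq flow-cell, with NaOH stripping and re-annealing between cycles. In each cycle, clusters annealed to 100 nM quencher-labelled ATP aptamer were imaged in selection buffer, then after 15 min with 500 uM ATP at 22 °C. Per cluster, the fluorescence ratio is summed target-cycle over summed buffer-cycle Cy3 intensity, averaged per switch-domain sequence. Only clusters within 100-1000 RFU were kept.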
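Further: ATP exposure 15 min at 22 °C before imaging.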

Sequence | switch fluorescence ratio
AAGGAAAAAT | 1
CGAACTATAT | 1.04
CCTTATATGC | 1.43
TGCTTTATAG | 1.02
ATTTAGACAG | 0.959
GTGATAAATA | 1.03
TGACTTCTTA | 0.97
GTGCCCGTTT | 1.03
GGACTCACTG | 1.01
TGGAACTTGG | 1.02
TTACTGATC | 1.04
TCAATGCAGG | 1.06
CTTATTATGT | 1
TAAAATTTCT | 1.01
AGACAGTTTG | 0.905
TTAGTTATGA | 0.937
GTATCCGTGT | 0.962
CAGAAACGTG | 0.962
GCTGACGGTG | 0.993
TGGGCTCAGG | 1.22
CAAGTGAAGG | 1.01
TTGCGTCAAC | 1
CAGGAAGTCC | 1
GGGCTCTGT | 1.01
TCTGTGTGTG | 1.01

Sequence | switch fluorescence ratio
GTAAAGTGTG | 1.05
AGACGTCAAT | 1.32
CCTAGTAGTG | 1.01
GTTTACGGCT | 1.08
GCTATGTGCT | 0.993
ATTGAACCTT | 1.01
TGGGCGCGAG | 1.01
GCTAAGGGGT | 0.977
GGTCGAGTGT | 1
CTGTACTAAC | 1.16
CCAACACAGG | 1.94
GAGTCACTAG | 1.02
GGTAATGTG | 1.01
AAACTCAGGC | 1.18
ACATCATTTT | 1
CCGAGACATG | 1.1
TTAAAGCCTC | 1.04
GCTGGCATGG | 1
CGATCATTAC | 2.82
AGGTTAGCTA | 0.961
TAAAGGCCTT | 1.01
AATTTTTGG | 1.27
GGCAACACAC | 1.34
CCTTTAACGC | 1.72
AGTGTGTGTC | 0.977

Sequence | switch fluorescence ratio
ACCTGTGTCA | 1.07
GGGGCGAGTT | 1.02
CCGTCTTAGT | 1.01
GACGTTTCTT | 0.95
TCCGTTATTC | 1.43
CAAAGGAGGG | 1
AAAAACTCAA | 1.07
AAGTTAACCA | 1.01
CGCGTGGAGC | 1.06
TGTTATACGA | 1.05
AATGATAGCG | 1.05
ATGGTAAAGT | 0.966
TAATTCCGCA | 1.3
TATATAAGTA | 1.01
TCGGCTACGT | 0.937
AGCAGTCTTA | 0.964
AGACTCGCCG | 1.01
ATAAGACTTG | 0.984
TCAATACCAG | 1.05
GCGATAGGAG | 1.19
ACGTCCGT | 1
CAACTTTGTC | 0.935
TCGGCGCCCA | 0.991
CGCCACCTTA | 1.02
GGCTCGTTAA | 0.989

Sequence | switch fluorescence ratio
CGATATTAAA | 1
AAAGAGCCAA | 1.07
CATAGGCTCT | 0.965
AATGGATCGG | 0.981
TATCTTGCTC | 1.02
GTTTAAGAAT | 0.968
GAGTAAAATA | 1.03
CCCCGGGTAC | 2.02
CCTTAGTAGC | 1.14
TTTATGTAGT | 1.04
ATATGAAGCT | 0.983
TATATAGCGT | 1.01
ACCCACCGGG | 1.06
TGTGATCTGC | 1.01
ACCTGGTCTT | 1.01
TGCCTTGGTG | 1.33
CTAGTAACTT | 0.98
TCACCCAACG | 1.35
GCAGCAGGTT | 1.06
AAAGGGGCGA | 1.17
GTTATTACTA | 1
ACAAAAACCC | 1.02
AAGGAGCGG | 0.947
ACTTCAGTG | 0.991
CGTCAAAGA | 1.03

Sequence | switch fluorescence ratio
TTGTGGCAGT | 1.02
GTTATCAATT | 1.06
ACTGAACTTA | 1.2
CGCGGCTGTG | 1.03
CCCGTTCTGT | 1.01
CTGCATGCTG | 1.03
TAGTCGGCGG | 0.972
GGATAATACG | 1.05
GGGTACAATA | 1.03
AAGAATTCAG | 0.977
GGAGGTCGTG | 0.995
TTTACCTGGT | 1.01
TGAAATAT | 0.981
TGTATGCGTG | 0.965
ACGGACCACC | 1.46
TAGTTTATG | 1.02
CGGGACCCGG | 1.07
TCACGTATGG | 1.07
CTATCTGTCG | 1.03
GGGTGAATTG | 0.997
TGCCGGCCGG | 1.06
TCTAGACCAT | 0.982
ACTTCTTCCG | 4
CCTCAGCTGG | 2.54
TGCAAGGGGA | 0.984

Sequence | switch fluorescence ratio
ATCCGCCGCG | 2.46
AAACGAATG | 1.01
GCTCTACGAA | 1.06
CGGTTATAAA | 0.97
AATACCCACG | 1.54
CATGTGGGCT | 1.02
ACGGTACCTT | 1.42
TACGGTCTGT | 0.976
TAGACGGGG | 1.07
AGACTGCCC | 1.11
GGATTCTACC | 1.06
CGAGGAGCTG | 0.948
GAGGGTGCCC | 1.07
GGGCACGCGC | 1.04
GGCATCGTGC | 0.983
CAGTCTAGTA | 1.02
GGGAAGGCTT | 1.03
TTACGTGGGT | 1.02
AACTACGCGC | 2.16
TGCCGCCAGT | 1.04
AGTCTGAAG | 1.02
CGAAACTTCT | 0.998
ACGTCTCATC | 1.02
ACAATATAGG | 1.04
TTAACAGTCA | 1

Sequence | switch fluorescence ratio
GATTCGTACT | 0.969
TCTATAAGAT | 1.1
AGGCCAACGT | 1.03
CAGGTTCTGG | 0.969
TCTAAGTTCG | 0.945
TCAAAGTCGC | 1.03
CGTTCTGTGT | 1.01
GAGCTTCACA | 0.982
GAGTACGGAT | 1.01
GTTTATATTT | 1.03
TTACAGTCG | 1.05
CACGAGGTA | 0.976
CATAGGTGAG | 0.998
GTATGGGGAG | 1.06
TGCTTCTATC | 1.03
AAGTCAGAGG | 1.05
ACCGGAGGAT | 0.951
TTACGGCTTT | 1.05
GGAATTCGAG | 1.03
CGCCAAAAGG | 0.99
GCATAAGGAG | 1.06
ATTATGGAGT | 1
GCATTCTACC | 1.35
AATTCGAACG | 0.962
CATAATATAT | 1.04

Sequence | switch fluorescence ratio
CATGCCGATC | 1.01
AGGTCCATGG | 1
ATAAGACCTG | 1.05
TGGAAGATGC | 1.02
TGGGCAAGGG | 0.978
ATGAGTACTG | 1.07
TCATAATCGC | 1.03
CGGTAAGACT | 1.11
GGCACGGCCT | 1.06
TCTGTGGCCT | 0.917
ACATCGCAAA | 2.29
GCCTTTATTT | 1
GTTCAGTTAG | 0.96
ATTTGATAAA | 0.985
AGTATAATCC | 1
ATTGCCACCT | 0.966
GGGAGGCCAA | 0.949
GTTCTTCTTC | 0.95
ACAGTGTTCC | 1.05
TCCTTAAAAG | 0.949
TATTACTAC | 1.05
CCTTGAGATT | 1.01
CGGGTCGGAA | 1.03
TTTCATTTGA | 0.98
TACTGGGGAA | 1.01
